# Experimental data from PubChem BioAssay AID1508624 (National Center for Advancing Translational Sciences (NCATS), 2021).
# In all, about 48,000 compounds went through this assay and about 120 (0.25%) were called active. About 4% were inconclusive and are not listed. The call rests on the fitted dose curve; in most records, active means well fitted activation curve with a large enough effect; inconclusive means small, poorly fitted or top-dose-only effect, or another doubt; inactive means no such curve, though single readings can be large or run the other way. Some of the results follow.
# Experiment: Primary qHTS for Identification of Small Molecule Activators of Huntingtin-Antisense Promoter Activity; further: nearly all actives have a fitted effect of over 55% in size
# Details: HEK293 HTT-AS promoter firefly luciferase reporter, 24 h; series mostly up to 57.5 µM; activity change, positive = activation: at the top concentration
# In short: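 Luminescence was read after Dual-Glo reagent and a 10 min room-temperature incubation. Values were normalized to vehicle (0% activity) and zero RLU (-100% activity). Reporter HEK293 cells had been exposed to compounds (up to 57.5 uM final) for 24 h.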
row,SMILES,"activity change, positive = activation"
1,Cn1c(=O)oc2cc(S(=O)(=O)NC(Cc3ccccc3)C(=O)Nc3ccc(F)cc3)ccc21 (stereo not given),inactive: -25.1%
2,CCn1c(C(=O)NCc2ccc(F)cc2)cc2oc3ccccc3c21,inactive: -33.4%
3,CCC1(C)CC(=O)c2c(ccc3oc(C(=O)NCc4ccccc4)c(C)c23)O1 (stereo not given),inactive: 22.1%
4,Cc1ccc2oc3c(c(=O)c2c1)C(c1ccc(O)cc1)N(Cc1ccc2c(c1)OCO2)C3=O (stereo not given),inactive: -21.4%
5,CCOc1ccc(C(=O)c2cn(CC(=O)Nc3ccc(OC)cc3)c3cc4c(cc3c2=O)OCCO4)cc1,inactive: -11.2%
6,COc1ccc2[nH]c(=O)c(CN(C(=O)c3cccc(Cl)c3)c3ccccc3C)cc2c1,inactive: 0.163%
7,CC(C)CCn1c(=O)c2cccnc2n(CC(=O)Nc2ccc(F)cc2)c1=O,inactive: -22.2%
8,Cc1cc2nnc(SCc3ccc(F)cc3)n2c2ccccc12,inactive: -16.2%
9,CC1CN(c2ccc(Cl)cc2)c2nc3c(c(=O)n(CC(=O)O)c(=O)n3C)n2C1 (stereo not given),inactive: 0.625%
10,COc1ccc2occ(CC(=O)Nc3ccc(S(=O)(=O)Nc4nccc(C)n4)cc3)c2c1,inactive: 15.3%
11,Cc1ccc(CNC(=O)c2sc3nc[nH]c(=O)c3c2C)cc1,inactive: -4.93%
12,CN1CCN(C2(CNC(=O)c3ccc(C(C)(C)C)cc3)CCCCC2)CC1,inactive: -15.8%
13,C#CCn1c(C2CC(=O)N(c3ccc(OC)cc3)C2)nc2ccccc21 (stereo not given),inactive: 13%
14,COc1ccc(OCC(=O)Nc2nnc(S(=O)(=O)N3CCc4ccccc43)s2)cc1,inactive: 1.89%
15,Cc1cccc(C)c1Nc1c(-c2ccccc2F)nc2cccc(C)n12,inactive: -31.7%
16,CCOc1ccc(C(=O)/C=C/c2cn(CC(O)CN3CCCCCC3)c3ccccc23)cc1 (stereo not given),inactive: -13.9%
17,CCCCN(CC)CCNC(=O)c1c(C)oc2ncnc(N3CCOCC3)c12,inactive: -1.56%
18,CCOC(=O)c1ccccc1NC(=O)C1CCN(c2ncnc3c2nc2n3CCCCC2)CC1,inactive: -13.6%
19,CCC(=O)N1CCc2cc(S(=O)(=O)NC(C(=O)NCCc3ccccc3)C(C)C)ccc21 (stereo not given),inactive: 0.867%
20,Cc1cc(C)c(NC(=O)C(C)n2c(=O)c(C(F)(F)F)nc3ccccc32)c(C)c1 (stereo not given),inactive: -5.1%
21,Cc1cc(C)cc(OCC(=O)Nc2nc3c(s2)CC(C(C)(C)C)CC3)c1 (stereo not given),inactive: -16.3%
22,Cc1cccc(-n2ncc(C(=O)N3CCN(C4CCCCC4)CC3)c2C2CCN(C(=O)OC(C)(C)C)CC2)c1,inactive: -7.77%
23,COc1ccc(OC)c2sc(NC(=O)c3ccc(S(=O)(=O)N4CCCC4)cc3)nc12,inactive: -29.8%

row,SMILES,"activity change, positive = activation"
1,COc1cccc(CNC(=O)Cn2c(=O)ccc3cc(S(=O)(=O)N4CCC(C)CC4)ccc32)c1,inactive: -18.9%
2,COc1ccc(-n2c3c(c(=O)[nH]c2=O)C(NC(=O)c2ccccc2Cl)(C(F)(F)F)C(=O)N3)cc1 (stereo not given),inactive: -13.9%
3,COc1cccc(C(=O)NCc2ccc3c(c2)CCN3C(=O)c2ccncc2)c1,inactive: 7.5%
4,COc1ccccc1-c1nc(SCC(=O)c2ccccc2)n[nH]1,inactive: 14%
5,COc1ccc(-c2[nH]c(-c3cccc(OC)c3)nc2SCC(=O)Nc2ccc3c(c2)OCO3)cc1,inactive: -18.8%
6,COc1ccc(CNc2nc(SCc3ccc(Cl)cc3)nc3ccccc23)cc1,inactive: -2.25%
7,CCN(c1cccc(C)c1)S(=O)(=O)c1ccc(N2CCCCS2(=O)=O)cc1,inactive: -28.8%
8,COc1ccc(NC(=O)c2ccc(-c3nc(CSc4ccc(C)cc4)c(C)o3)cc2)cc1Cl,inactive: -7.99%
9,Cc1ccc(NC(=O)c2cc(S(=O)(=O)N(C)C3CCCCC3)ccc2F)cc1C,inactive: -24.1%
10,COc1ccccc1C(=O)Oc1c(Sc2ccccc2)c(C)nn1C(C)(C)C,inactive: 0%
11,CCCCCN1C(C(=O)c2ccccc2)=C(NC(=O)c2ccc(OC)cc2)c2ccccc2S1(=O)=O,inactive: -16.5%
12,CCc1ccc(C(=O)c2cn(CC(=O)Nc3cccc(OC)c3)c3ccc(OC)cc3c2=O)cc1,inactive: -20.5%
13,COc1ccccc1N1CCN(c2ncnc3c2cnn3-c2cc(Cl)ccc2C)CC1,inactive: -22.9%
14,COc1ccc(OCC(=O)NCc2ccc3c(c2)CCN3C(=O)c2ccccc2)cc1,inactive: -21.5%
15,O=C(c1cc2ccccc2oc1=O)N1CCN(c2ccc(Cl)cc2)CC1,inactive: -17.8%
16,O=C(NCCc1ccccc1)c1cnc2sc(N3CCCCCC3)nn2c1=O,inactive: 6.75%
17,Cc1cc2oc(C(=O)Nc3ccc(S(N)(=O)=O)cc3)cc(=O)c2cc1C,inactive: -9.57%
18,Cc1ccc(C(=O)N2c3ccc(C)cc3C(C)(c3ccccc3)CC2(C)C)cc1 (stereo not given),inactive: -39.3%
19,C[C@]12CC[C@H](O)CC1=CCC1C2CC[C@]2(C)C(n3cnc4ccccc43)=CCC12 (stereo not given in full),inactive: -5.29%
20,CCc1cccc(NC(=O)CN2C(=O)COc3ccc(S(=O)(=O)Nc4ccccc4)cc32)c1,inactive: -34.9%
21,Cc1ccc(CSc2nc3ccc(NC(=O)COc4ccccc4)cc3s2)cc1,inactive: -8.86%
22,CCOC(=O)c1ccc(N2C(=O)c3[nH]nc(-c4ccc(C)cc4)c3C2c2cccc(F)c2)cc1 (stereo not given),inactive: -58.8%
23,CC(NC(=O)c1ccc2c(c1)CCN2S(C)(=O)=O)c1ccccc1 (stereo not given),inactive: -13.3%

row,SMILES,"activity change, positive = activation"
1,Cc1c(Cl)cccc1NC(=O)c1cccc(NC(=O)N2CCSc3ncccc32)c1,inactive: -16.8%
2,Cc1ccc(CNC(=O)c2ccc3c(c2)nc(C)n3-c2cccc(F)c2)cc1,inactive: -5.7%
3,CCOc1ccc(NC(=O)CSC2=Nc3ccccc3C3=NC(CCC(=O)NCc4ccccc4)C(=O)N23)cc1 (stereo not given),inactive: 0%
4,Cc1cc(C(F)(F)F)n2nc(-c3ccc(Br)cc3)cc2n1,inactive: -1.87%
5,CCCCOc1ccc(-c2nn(-c3ccccc3)cc2C2NC(=O)NC(C)=C2C(=O)OCC)cc1 (stereo not given),inactive: -13.1%
6,Cc1cccc(NC(=O)CSc2cn(CC(=O)N3CCCCCC3)c3ccccc23)c1,inactive: -16.6%
7,Cc1cc(OC(C)C(=O)Nc2c(C(=O)c3ccc(F)cc3)oc3ccccc23)ccc1Cl (stereo not given),inactive: -6.02%
8,CCc1ccc(Sc2cc(C(=O)NCc3ccccc3OC)c3ccccc3n2)cc1,inactive: -35.7%
9,COC(=O)c1ccc(OCC2c3cc(OC)c(OC)cc3CCN2C(=O)Cc2ccc(OC)cc2)cc1 (stereo not given),inactive: -23.3%
10,CCOc1ccc(N2CC(NC(=O)C(=O)c3c[nH]c4ccccc34)CC2=O)cc1 (stereo not given),inactive: -22.4%
11,CCn1c(=O)cc(SCC(=O)NCc2ccc(F)cc2Cl)c2ccccc21,inactive: -10.1%
12,CCc1ccc(Sc2cc(C(=O)NCc3cccc(OC)c3)c3ccccc3n2)cc1,inactive: -44.3%
13,Cn1nc(C(=O)NCc2ccc(Cl)cc2)c2c1-c1ccccc1S(=O)(=O)C2,inactive: -29.8%
14,Cc1ccc(OCc2nc(-c3ccc(C(=O)N4CCN(c5ccccc5F)CC4)cc3)oc2C)cc1,inactive: 3.45%
15,O=C1OC(C(=O)Nc2cccc(Br)c2)Cc2ccccc21 (stereo not given),inactive: 5.95%
16,COc1ccc(CNC(=O)Cn2c(SCC(=O)Nc3ccc(OC)cc3)nc3ccccc32)cc1,inactive: 5.39%
17,Cc1cccc(-n2ncc(C(=O)N3CCN(c4ccc(Cl)cc4)CC3)c2C2CCN(C(=O)OC(C)(C)C)CC2)c1,inactive: -6.74%
18,CCc1ccc2nc(N(CCN(CC)CC)C(=O)c3ccco3)sc2c1,inactive: 17.8%
19,Cc1ccc(NC(=O)c2ccc(-c3cccc(Cl)c3C)o2)cc1,inactive: 11%
20,COc1ccc(OC)c(CNC(=O)c2cc3c(-c4ccc(OC)c(OC)c4)nn(C)c3s2)c1,inactive: 1.78%
21,CN(C)S(=O)(=O)N(CC(=O)NCCSCc1ccccc1)c1ccccc1,inactive: -7.67%
22,CCCCCn1c(=O)[nH]c2cc(C(=O)Nc3cc(C)cc(C)c3)ccc2c1=O,inactive: -6.55%
23,Cc1cccc(N2C(=O)N(CC(=O)C(C)(C)C)c3ccccc3S2(=O)=O)c1C,inactive: -34.2%

row,SMILES,"activity change, positive = activation"
1,COc1ccc(Cl)cc1NC(=O)c1cc(S(=O)(=O)NC2CCCCCC2)ccc1F,inactive: -25.7%
2,Cc1ccc(C)c(NC(=O)CN2CCCN(Cc3cccc(Cl)c3)S2(=O)=O)c1,inactive: -21.3%
3,CCc1nnc(SCc2cc(C)ccc2C)c2cc3sc(C)cc3n12,inactive: -21.7%
4,COc1ccc(NC(=O)C(C)n2nc(-c3ccc(C)c(C)c3)ccc2=O)cc1OC (stereo not given),inactive: -19.6%
5,CCOC(=O)c1c(C)[nH]c(C)c1S(=O)(=O)N1CCC(C(=O)N2CCN(c3ccccc3F)CC2)CC1,inactive: 0%
6,COc1cccc(NC(=O)CSC2=Nc3ccccc3C3=NC(CC(=O)NC4CCCCC4)C(=O)N23)c1 (stereo not given),inactive: -9.7%
7,Cc1ccc(-n2c(SCc3cccc(F)c3)nc3[nH]ncc3c2=O)cc1C,inactive: -29.5%
8,COc1ccc(C2CC(=O)c3cc(-c4nc(-c5ccc(Cl)cc5)c(C)s4)c(=O)[nH]c3C2)cc1 (stereo not given),inactive: -6.4%
9,Cc1ccc2c(c1)-c1cc(C)nn1C(c1cc(Br)ccc1O)N2 (stereo not given),"inactive: 11% [at 11.5 µM, percent change from vehicle, -100% = no light]"
10,COc1cc(OC)c(OC)cc1/C=C/c1nc2cc3ccccc3cc2c(=O)n1-c1ccc(F)cc1F,inactive: -22.8%
11,CCNC(=O)[C@H]1O[C@@H](n2cnc3c(N)nc(NCCc4ccc(CCC(=O)O)cc4)nc32)[C@H](O)[C@H]1O,inactive: -7.82%
12,O=S(=O)(Nc1nc2n(n1)C(c1ccc(F)cc1)C=C(c1ccccc1)N2)c1ccccc1 (stereo not given),inactive: -13.1%
13,COC(=O)c1ccc2c(=O)n(CCCCCC(=O)NCc3ccc(Cl)cc3)c(=O)[nH]c2c1,inactive: -21.9%
14,Cc1cc(C)c2c(=O)cc(C(=O)Nc3ccccc3C(F)(F)F)oc2c1,"inactive: 9.28% [at 11.5 µM, percent change from vehicle, -100% = no light]"
15,CCc1ccc(CNC(=O)c2ccc(NC(=O)N3CC(C)Sc4ccccc43)cc2)cc1 (stereo not given),inactive: -19.5%
16,Cc1cc(NC(=O)CCS(=O)(=O)c2cc3c4c(c2)CCN4C(=O)CC3)ccc1Br,inactive: -0.692%
17,CC(C)(C)c1ccc(C(=O)NCC(c2cccs2)S(=O)(=O)c2ccccc2)cc1 (stereo not given),inactive: -36.1%
18,COc1ccc(CNC(=O)c2ccc(N3CCCC3)c(NC(=O)NCc3ccc(C)cc3)c2)cc1,inactive: 0.869%
19,Cc1nn2c(-c3cccc(NC(=O)c4ccccc4)c3)nnc2c2ccccc12,inactive: -6.64%
20,COc1ccc(-c2cc(C)no2)cc1S(=O)(=O)N1CCOc2ccccc21,inactive: -29.6%
21,Cc1cccc(N2CCN(C(=O)CCc3nnc4n(CC(C)C)c(=O)c5ccccc5n34)CC2)c1C,inactive: -16.9%
